Whole data set: some 81,000 sequences, median “one-hybrid fitness for binding parS DNA” near -0.17, cut for the highest 2% near 0.51. The list shows a part of the results.
B1: Caulobacter ParB omega fusion; a variant is named by its letters at X, in order, B8GW30 (parent)
chain: MESVVVGEPGMSEGRRGLGRGLSALLGEVDAAPAQAPGEQLGGSREAPIEILQRNPDQPRRTFREEDLEDLSNSIREKGVLQPILVRPSPDTAGEYQIVAGERAWRAAQRAGLKTVPIMVRELDDLAVLEIGIIENVQRADLNVLEEALSYKVLMEKFERTQENIAQTIGKSXSHVANXMRLLXLPDEVQSYLVSGELTAXHARAIAAAADPVALAKQIIEGGLSVRETEALARKAPNLSAGKSKGGRPPRVKDTDTQALESDLSSVLGLDVSIDHRGSTGTLTITYATLEQLDDLCNRLTRGI

Variants of: B1
Assay: one-hybrid fitness for binding parS DNA (scaled: cognate 1, non-cognate 0); higher = stronger binding
Conditions: with parS DNA site
How it was run: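 Fitness is the rescaled log change in variant-to-wild-type read ratio, measured by Illumina sequencing of plasmids before and after bacterial one-hybrid selection. The scale puts cognate at 1 and non-cognate at 0. Selection of Caulobacter ParB libraries, four specificity codons randomised, took place in E. coli USO with a HIS3 reporter, site 19 bp from the promoter, over 48 hours at 37°C on M9-minus-histidine with 0.1 mM IPTG and 5 mM 3-AT.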

Variant	one-hybrid fitness for binding parS DNA
CQPR	≤ 0.2
PMDS	≤ 0.2
RPAG	≤ 0.2
NSTE	≤ 0.2
LCGL	≤ 0.2
NRHA	≤ 0.2
QPKV	≤ 0.2
YLVN	≤ 0.2
RAVS	0.986
QNVT	≤ 0.2
GDSK	≤ 0.2
AGSD	≤ 0.2
TCTP	≤ 0.2
RIQR	≤ 0.2
DHDY	≤ 0.2
EFRS	≤ 0.2
PWCC	≤ 0.2
WSKF	≤ 0.2
MCPS	≤ 0.2
RNYE	≤ 0.2
SFIT	≤ 0.2
PQHT	≤ 0.2
YADF	≤ 0.2
FCNR	≤ 0.2

Variant	one-hybrid fitness for binding parS DNA
MWWG	≤ 0.2
SCTD	≤ 0.2
LAPP	≤ 0.2
FSMS	≤ 0.2
AKYW	≤ 0.2
AEKM	≤ 0.2
RWPK	≤ 0.2
TYRL	≤ 0.2
RRFL	≤ 0.2
PYLW	≤ 0.2
TAIG	≤ 0.2
YDFC	≤ 0.2
TNML	≤ 0.2
RVNV	≤ 0.2
TNDK	≤ 0.2
QVPW	≤ 0.2
TAPR	≤ 0.2
RCLD	≤ 0.2
GRRM	≤ 0.2
TLPS	≤ 0.2
NKQG	≤ 0.2
DPVS	≤ 0.2
DRGG	≤ 0.2
DVGS	≤ 0.2

Variant	one-hybrid fitness for binding parS DNA
RYEL	≤ 0.2
AHNC	≤ 0.2
TPCR	≤ 0.2
AERL	≤ 0.2
EFKT	≤ 0.2
SSEM	≤ 0.2
PIDQ	≤ 0.2
GWSK	≤ 0.2
WFRR	≤ 0.2
RTMW	0.258
DAGC	≤ 0.2
FSYC	≤ 0.2
CWTQ	≤ 0.2
RPVY	≤ 0.2
IYHG	≤ 0.2
RSSN	0.436
RKQG	0.913
QSTK	≤ 0.2
PKVL	≤ 0.2
CPCM	≤ 0.2
DTDV	≤ 0.2
NCCT	≤ 0.2
QMTI	≤ 0.2
PMAL	≤ 0.2

Variant	one-hybrid fitness for binding parS DNA
RMRQ	≤ 0.2
QNSK	≤ 0.2
MPPT	≤ 0.2
NSYT	≤ 0.2
YMLS	≤ 0.2
RQME	≤ 0.2
VCKC	≤ 0.2
EESG	≤ 0.2
RCPE	≤ 0.2
AASW	≤ 0.2
TLYM	≤ 0.2
HKKR	≤ 0.2
TYYS	≤ 0.2
HGPA	≤ 0.2
NYRG	≤ 0.2
NWKY	≤ 0.2
DFYT	≤ 0.2
GSFH	≤ 0.2
ESQG	≤ 0.2
KHQE	≤ 0.2
TTIG	≤ 0.2
MSNM	≤ 0.2
TCAL	≤ 0.2
IGSG	≤ 0.2

Variant	one-hybrid fitness for binding parS DNA
SNMT	≤ 0.2
PDSR	≤ 0.2
DVES	≤ 0.2
KHSG	≤ 0.2
MSHG	≤ 0.2
YTVS	≤ 0.2
IAMY	≤ 0.2
PRKD	≤ 0.2
NAIS	≤ 0.2
HIGV	≤ 0.2
SRHT	≤ 0.2
PHQM	≤ 0.2
QHYH	≤ 0.2
YSGC	≤ 0.2
EYTS	≤ 0.2
CITI	≤ 0.2
RFRH	0.219
VSWK	≤ 0.2
KPER	≤ 0.2
YKRC	≤ 0.2
CLTR	≤ 0.2
RIEP	≤ 0.2
QYYG	≤ 0.2
LRNC	≤ 0.2

Variant	one-hybrid fitness for binding parS DNA
QLLH	≤ 0.2
QCLF	≤ 0.2
KVAC	≤ 0.2
NKGG	≤ 0.2
SHLD	≤ 0.2
AHEC	≤ 0.2
EMNA	≤ 0.2
KRQC	≤ 0.2
TISL	≤ 0.2
GMGC	≤ 0.2
WYHR	≤ 0.2
AKWQ	≤ 0.2
QQSG	≤ 0.2
CEEG	≤ 0.2
VHHL	≤ 0.2
PVHW	≤ 0.2
ITGH	≤ 0.2
QAMR	≤ 0.2
QLSP	≤ 0.2
YNPR	≤ 0.2
LRPD	≤ 0.2
PSRP	≤ 0.2
VRNF	≤ 0.2
AGSS	≤ 0.2

Variant	one-hybrid fitness for binding parS DNA
QICL	≤ 0.2
QCHR	≤ 0.2
YWKR	≤ 0.2
LEAD	≤ 0.2
EKKS	≤ 0.2
RCLG	1.01
PDQA	≤ 0.2
AFRR	≤ 0.2
TKEV	≤ 0.2
TTRM	≤ 0.2
NAGL	≤ 0.2
SLAN	≤ 0.2
TNVC	≤ 0.2
RQAH	≤ 0.2
RDRS	0.236
NKLG	≤ 0.2
KPPS	≤ 0.2
HPWL	≤ 0.2
HVAF	≤ 0.2
PYLG	≤ 0.2
QPYA	≤ 0.2
PQIE	≤ 0.2
PGGR	≤ 0.2
DTFF	≤ 0.2

Variant	one-hybrid fitness for binding parS DNA
MVPG	≤ 0.2
QYNV	≤ 0.2
HAKM	≤ 0.2
TFLI	≤ 0.2
PIDR	≤ 0.2
KDEM	≤ 0.2
RHLS	0.978
VEQK	≤ 0.2
GDEG	≤ 0.2
RMRM	0.379
YIHR	≤ 0.2
PWPY	≤ 0.2
KGST	≤ 0.2
YDTQ	≤ 0.2
IAET	≤ 0.2
GNNR	≤ 0.2
FTSC	≤ 0.2
TWSR	≤ 0.2
PRCL	≤ 0.2
TYGV	≤ 0.2
HVPT	≤ 0.2
SSRP	≤ 0.2
TISP	≤ 0.2
KHNT	≤ 0.2

Variant	one-hybrid fitness for binding parS DNA
NYHC	≤ 0.2
TIQC	≤ 0.2
KTKK	≤ 0.2
QPVA	≤ 0.2
DRQL	≤ 0.2
PDTG	≤ 0.2
CKYT	≤ 0.2
NCGG	≤ 0.2
AHRC	≤ 0.2
RWPA	≤ 0.2
TVCR	≤ 0.2
PRMY	≤ 0.2
CSFN	≤ 0.2
QQKA	≤ 0.2
SYCW	≤ 0.2
KTAY	≤ 0.2
QCRM	≤ 0.2
CHAI	0.234
QHCV	≤ 0.2
QSGQ	≤ 0.2
TDYV	≤ 0.2
KNSI	≤ 0.2
IAAL	≤ 0.2
TTPM	≤ 0.2

Variant	one-hybrid fitness for binding parS DNA
MDPS	≤ 0.2
SVTG	≤ 0.2
NRMR	≤ 0.2
QSYC	≤ 0.2
YIRS	≤ 0.2
SEPD	≤ 0.2
FLMG	≤ 0.2
CAGI	≤ 0.2
SWHS	≤ 0.2
WSQP	≤ 0.2
AGTD	≤ 0.2
RSPP	≤ 0.2
QLNN	≤ 0.2
RGTS	0.863
AMQG	≤ 0.2
NITS	≤ 0.2
HIQC	≤ 0.2
MSRF	≤ 0.2
FAKA	≤ 0.2
KCKR	≤ 0.2
QWRG	≤ 0.2
MLQA	≤ 0.2
VSDE	≤ 0.2
DSIS	≤ 0.2

Variant	one-hybrid fitness for binding parS DNA
EGFS	≤ 0.2
GRVS	≤ 0.2
GPLT	≤ 0.2
YQRM	≤ 0.2
RDRE	≤ 0.2
VPSI	≤ 0.2
QQCC	≤ 0.2
SCGR	≤ 0.2
CYHR	≤ 0.2
TYYF	≤ 0.2
GKGC	≤ 0.2
VKGK	≤ 0.2
GWNS	≤ 0.2
TSTQ	≤ 0.2
QMVA	≤ 0.2
TSCL	≤ 0.2
RWLC	0.658
MHRD	≤ 0.2
CDRG	≤ 0.2
HCTT	≤ 0.2
KQKI	≤ 0.2
FHRR	≤ 0.2
YKTF	≤ 0.2
RYRY	0.476

Variant	one-hybrid fitness for binding parS DNA
HAAP	≤ 0.2
WART	≤ 0.2
PGYE	≤ 0.2
LAER	≤ 0.2
VSQY	≤ 0.2
RAST	0.911
QETC	≤ 0.2
PSMP	≤ 0.2
KLKT	≤ 0.2
SNYT	≤ 0.2
EHLF	≤ 0.2
SCTY	≤ 0.2
PYLD	≤ 0.2
SSQS	≤ 0.2
DYMC	≤ 0.2
LASW	≤ 0.2
MRRF	≤ 0.2
EIGA	≤ 0.2
IERS	≤ 0.2
VPNM	≤ 0.2
TPSV	≤ 0.2
ANSG	≤ 0.2
FAMG	≤ 0.2
CVRP	≤ 0.2

Variant	one-hybrid fitness for binding parS DNA
RQPD	≤ 0.2
LMTI	≤ 0.2
KWSC	≤ 0.2
ITFC	≤ 0.2
SNHI	≤ 0.2
ETMT	≤ 0.2
PRAY	≤ 0.2
NNTR	≤ 0.2
WKTG	≤ 0.2
QEVV	≤ 0.2
VLEL	≤ 0.2
ARND	≤ 0.2
QQDS	≤ 0.2
RMYG	1.03
NPYW	≤ 0.2
HTHH	≤ 0.2
WLTW	≤ 0.2
LLIN	≤ 0.2

Source: a collection of fitness landscapes (doi:10.1016/j.celrep.2020.107928)
